Experimental data: the supplement of paper PMC4996465
Viability of KB3-1 and Nalm-6 cells after 48 h of drug alone (CellTiter-Glo), 11 doses over about 4.5 log units. % of DMSO wells, lower = more cell loss; AC50 from the fitted curve, lower = more potent. No active / inactive call. Nalm-6 was screened in two runs. AC50 is listed only for well-fitted inhibitory curves. KB3-1 is a HeLa-derived carcinoma line, Nalm-6 a B-cell precursor leukaemia line.

How the values were obtained:
[1] = tested on: KB3-1; assay: viability (% of DMSO control); higher = more viable cells
Protocol: (§1)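 Eleven-dose screen of the NCATS MIPE 3 library on cells without co-treatment; CellTiter-Glo after 48 h, as % of DMSO wells.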

[2] = tested on: Nalm-6; assay: as above
Protocol: as §1

[3] = tested on: KB3-1; assay: log AC50 of viability decrease (48 h) (log10 M); higher = less potent
Protocol: (§2)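 Eleven-dose screen of the NCATS MIPE 3 library on cells without co-treatment; CellTiter-Glo after 48 h. AC50 from the curve fit; only inhibitory curves of the better fit classes are listed.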

[4] = tested on: Nalm-6; assay: as above
Protocol: as §2

Structure (SMILES) | viability ([1]; 0.00078 µM) [%] | viability ([1]; 0.00234 µM) [%] | viability ([1]; 0.00702 µM) [%] | viability ([1]; 0.0211 µM) [%] | viability ([1]; 0.0632 µM) [%] | viability ([1]; 0.19 µM) [%] | viability ([1]; 0.569 µM) [%] | viability ([1]; 1.71 µM) [%] | viability ([1]; 5.12 µM) [%] | viability ([1]; 15.4 µM) [%] | viability ([1]; 46.1 µM) [%] | viability ([2]; run: 1, 0.00078 µM) [%] | viability ([2]; run: 1, 0.00234 µM) [%] | viability ([2]; run: 1, 0.00702 µM) [%] | viability ([2]; run: 1, 0.0211 µM) [%] | viability ([2]; run: 1, 0.0632 µM) [%] | viability ([2]; run: 1, 0.19 µM) [%] | viability ([2]; run: 1, 0.569 µM) [%] | viability ([2]; run: 1, 1.71 µM) [%] | viability ([2]; run: 1, 5.12 µM) [%] | viability ([2]; run: 1, 15.4 µM) [%] | viability ([2]; run: 1, 46.1 µM) [%] | viability ([2]; run: 2, 0.00078 µM) [%] | viability ([2]; run: 2, 0.00234 µM) [%] | viability ([2]; run: 2, 0.00702 µM) [%] | viability ([2]; run: 2, 0.0211 µM) [%] | viability ([2]; run: 2, 0.0632 µM) [%] | viability ([2]; run: 2, 0.19 µM) [%] | viability ([2]; run: 2, 0.569 µM) [%] | viability ([2]; run: 2, 1.71 µM) [%] | viability ([2]; run: 2, 5.12 µM) [%] | viability ([2]; run: 2, 15.4 µM) [%] | viability ([2]; run: 2, 46.1 µM) [%] | log AC50 of viability decrease [3] | log AC50 of viability decrease ([4]; run: 1) | log AC50 of viability decrease ([4]; run: 2)
Nc1ccccc1NC(=O)c1ccc(CNc2nccc(-c3cccnc3)n2)cc1 [Mocetinostat] | 97 | 103 | 98.7 | 85.6 | 83.9 | 56.4 | 29.7 | 12.9 | 12.7 | 12.5 | 19.1 | 112 | 118 | 112 | 99.4 | 100 | 70.6 | 9.98 | 5.27 | 5.08 | 4.74 | 3.68 | 104 | 96.7 | 94.3 | 92 | 79.3 | 38.4 | 6.67 | 4.3 | 4.05 | 3.84 | 2.56 | -6.73 | -6.63 | -6.88
COC1=CC=CC2=C1C(=NC(=N2)C3=CC=CS3)NN4C(=O)\C=C(C)/C4=O | 102 | 99.4 | 100 | 96.6 | 97 | 91 | 73.3 | 54.9 | 54.9 | 34 | 8.68 | 84.4 | 81.5 | 66.5 | 54 | 35.8 | 20.5 | 7.05 | 3.54 | 3.33 | 2.71 | 1.97 | 100 | 80.8 | 70.2 | 48.1 | 29.4 | 12.1 | 3.7 | 2.42 | 2.27 | 1.29 | 1.41 | -5.23 | -7.48 | -7.78
C[C@H]([C@H]1C\C(=C(CO)/C(=O)O1)C)[C@H]2CC[C@H]3[C@@H]4C[C@H]5O[C@]56[C@@H](O)\C=C/C(=O)[C@]6(C)[C@H]4CC[C@]23C [Withaferin A] | 104 | 99.1 | 104 | 98.7 | 98.3 | 98.6 | 85.4 | 55.6 | 44.1 | 17.1 | 1.34 | 116 | 109 | 109 | 105 | 76.7 | 11.3 | 3.67 | 2.53 | 1.98 | 2.59 | 0.486 | 108 | 113 | 103 | 97.4 | 64.5 | 4.13 | 2.45 | 2.22 | 2.34 | 2.08 | 0.771 | -5.43 | -7.08 | -7.13
C[C@H]1[C@@H](CC(C[C@H]2O[C@@H]3O[C@]4(C)CC[C@H]5[C@H](C)CC[C@@H]([C@H]2C)[C@@]35OO4)CS(=O)(=O)c2ccc(COC(=O)N(C)C)cc2)O[C@@H]2O[C@]3(C)CC[C@H]4[C@H](C)CC[C@@H]1[C@@]24OO3 [ASR-isobudimer-SO2Ph-4-CH2OC(O)NMe2] | 96.8 | 98.2 | 100 | 91.8 | 99.5 | 77.8 | 41.8 | 36.5 | 24.1 | 19.9 | 7.93 | 101 | 104 | 92.2 | 81 | 30.6 | 14.4 | 9.14 | 8.31 | 9.57 | 7.05 | 3.61 | 110 | 106 | 106 | 91.3 | 15.9 | 6.99 | 4.42 | 4.68 | 5.08 | 5.21 | 2.74 | -6.38 | -7.43 | -7.48
CC(C)(N)C(=O)N[C@H](COCc1ccccc1)C(=O)N1CCC2(CC1)CN([S+](C)(=O)[O-])c1ccccc12 [Ibutamoren mesilate] | 98.3 | 96.6 | 95.1 | 97.2 | 95.2 | 91.2 | 98.6 | 102 | 96.8 | 60.9 | 66.4 | 77.6 | 87.8 | 101 | 106 | 112 | 100 | 99.9 | 122 | 91.4 | 74.5 | 51.5 | 101 | 104 | 100 | 102 | 98.9 | 104 | 99.6 | 103 | 98 | 85.6 | 55.8 | -5.08 |  | -4.73
CCc1cc(-c2n[nH]c(C)c2-c2ccc3c(c2)OCCO3)c(O)cc1O | 97.2 | 99.9 | 104 | 105 | 103 | 102 | 96.3 | 90.1 | 57 | 57.5 | 46.3 | 102 | 113 | 102 | 111 | 106 | 105 | 96.5 | 85.7 | 73.4 | 49 | 12.1 | 105 | 96.3 | 99.5 | 106 | 104 | 108 | 100 | 89.2 | 74.1 | 58.2 | 12.3 | -5.58 | -4.83 | -4.78
O=C(Nc1cc(C(F)(F)F)cc(C(F)(F)F)c1)c1cc(Cl)ccc1O [IMD-0354] | 96.2 | 101 | 96.7 | 86.6 | 56.5 | 41.9 | 17.4 | 37.6 | 21.4 | 15.7 | 12.1 | 104 | 101 | 97.5 | 107 | 83.8 | 59.7 | 7.65 | 4.04 | 1.88 | 1.46 | 0.123 | 106 | 110 | 107 | 109 | 86.9 | 53.8 | 4.73 | 2.35 | 1.33 | 0.398 | 0.679 | -7.18 | -6.68 | -6.78
